Among all 340,000 compounds or so, about 6,900 (2%) were called active. Cut-off read from the data, not from the text of the source: active = inhibition above about 30%; inactive = below that, where a call was filed. This is a selection; strong and weak results do not stand in their true shares. Entries without a call were filed so in the source.

The experiment concerns the target D(2) dopamine receptor (Homo sapiens) (UniProt P14416). Briefly: HTS Assay for Allosteric Antagonists of the Human D2 Dopamine Receptor: Primary Screen for Antagonists. Note: 0% is about no effect. Particulars: HEK293 TREx D2 cells, calcium flux, dopamine EC80; at 10 µM; stronger effect = higher value. In short, it runs like this: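 HEK293 T-REx D2 cells, tet-induced, calcium dye no-wash. Cpd pintool add, 180 s kinetic, then EC80 DA, 180 s kinetic. Ca flux read.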
Sequence of UniProt P14416 (P14416 whole entry, looked up): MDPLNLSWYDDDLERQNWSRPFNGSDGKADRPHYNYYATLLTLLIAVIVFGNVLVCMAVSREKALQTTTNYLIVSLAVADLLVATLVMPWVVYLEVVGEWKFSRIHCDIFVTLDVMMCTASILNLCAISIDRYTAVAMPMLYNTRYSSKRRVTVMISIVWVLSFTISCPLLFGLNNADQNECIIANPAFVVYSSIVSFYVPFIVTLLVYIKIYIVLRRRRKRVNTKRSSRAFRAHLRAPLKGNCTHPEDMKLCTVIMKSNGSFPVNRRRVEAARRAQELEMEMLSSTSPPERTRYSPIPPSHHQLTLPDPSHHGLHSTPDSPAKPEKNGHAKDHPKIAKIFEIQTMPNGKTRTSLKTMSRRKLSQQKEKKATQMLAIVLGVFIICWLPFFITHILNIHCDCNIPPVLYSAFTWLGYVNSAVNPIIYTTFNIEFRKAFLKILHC
(A change in cytosolic calcium serves as a functional read-out for many receptors and channels.)
One may read the inhibition as the drop in the measured response relative to a control, in per cent. For the compound `COc1ccccc1N1CCN(CCCCCCOc2ccc(F)cc2)CC1`, the inhibition is active: 81.1%. Consider `CCc1ccccc1NC(=O)c1cc(-c2ccc(Cl)s2)nc2ccccc12`, for which the inhibition was 7.72%.

In the case of `Cc1oc(-c2ccccc2F)nc1Cn1c(SCc2cccc(C(F)(F)F)c2)nc2ccncc21`, the inhibition was -9%. In the case of `O=C(Nc1ccccc1F)c1cnc(N2CCCCC2)c2ccccc12`, the inhibition is -28.6%.

Take `CCC(=O)Nc1cc2c3c(c1)CCN3C(=O)CC2`: the inhibition was active: 32.9%. With `CCOc1ccccc1NC(=O)Cn1c(=O)n(Cc2ccc(OC)cc2)c(=O)c2oc3ccccc3c21`, the inhibition worked out at 8.13%.

Consider `O=c1c2cccnc2[nH]c(=S)n1CCCN1CCN(c2ccc(F)cc2)CC1`, for which the inhibition is active: 101%. As for `COc1ccc(C(C)=O)cc1COC(=O)Cc1n[nH]c(=O)c2ccccc12`, the inhibition was active: 33.1%. For the compound `COc1ccc(OC)c(CNC(=O)CCCn2c(=O)c3cccn3c3cccnc32)c1`, the inhibition stood at 15.1%. Take `S=c1[nH]nc(C2CCCCC2)n1/N=C/c1ccc(Br)cc1`: the inhibition was active: 36%. The same measure for `CCOC(=O)c1sc2ncn(CC(=O)Nc3ccc(F)cc3F)c(=O)c2c1C`: -3.33%. As for `COC(=O)c1c(NC(=O)c2ccc(Cl)c(Cl)c2)sc2c1CCCC2`, the inhibition is -7.67%. As for `CCOc1ccc(NC(=O)CSc2nnc3scc(-c4ccccc4)n23)cc1`, the inhibition came out at 0.932%. As for `COc1ccc(-c2onc(C)c2C)cc1S(=O)(=O)NCc1cccs1`, the inhibition is -4.96%. `CCOC(=O)c1noc2ncn(CC(=O)Nc3ccc(F)cc3Cl)c(=O)c12`: the inhibition was -0.269%. With `CCOc1ccc(C(=O)Nc2ccc3c(c2)CCCN3S(=O)(=O)c2ccc(C)cc2)cc1` the figure was -9.3%; with `CC1CCCCN1Cc1c(O)ccc2c(=O)c(-c3ccc(Cl)cc3)c(C(F)(F)F)oc12` (configuration not stated), -2.75%; with `CC1=C(C(=O)OCc2ccc(C)cc2)C(c2ccccc2C(F)(F)F)CC(=O)N1` (configuration not stated), 3.88%. Take `Cc1ccc(OCCSc2nc3ccccc3n2CC(=O)N2CCOCC2)cc1`: the inhibition was determined as 5.78%. The same measure for `COc1ccccc1N1CCN(C(=O)Cn2ncc3c2-c2cc(C)ccc2OC3)CC1`: 1.28%. With `COc1ccc(Nc2nc3ccc(C)cc3nc2-n2nc(C)cc2C)cc1Cl` the figure was 10.4%; with `COCCN1CCc2nc(SCC(=O)Nc3ccc(C)c(Cl)c3)[nH]c(=O)c2C1`, 10.9%; with `COc1ccccc1NC(=O)CC1Sc2ccc(C(F)(F)F)cc2NC1=O` (configuration not stated), -5.91%.

For `Cc1cc(C)nc(SCc2cn3ccccc3n2)n1`, the inhibition was active: 38.3%. The same measure for `CCOc1ccccc1CNC(=O)Cn1c(=O)c2cccn2c2ccc(F)cc21`: -15.5%; for `O=C1CC(c2ccc(OCCCCCOc3ccc(C4CC(=O)NC4=O)cc3)cc2)C(=O)N1` (configuration not stated): active: 36.6%; for `CC1=C(C(=O)NCc2cccc(F)c2)C2(CCCCCC2)OC1=O`: -1.18%.

Turning to `COc1ccc(CNC(=O)c2cc(-c3ccc(Br)s3)nc3ccccc23)c(OC)c1`, the inhibition is -7.55%.

On to `Cc1cccc(CN2CCN(c3ncccn3)CC2)c1`, for which the inhibition is active: 82.8%. As for `COC(=O)Nc1nnc(/C=C/c2ccc(OC)cc2)s1`, the inhibition was active: 30.7%. With `O=C(C[n+]1ccc(-c2ccccc2)cc1)Nc1ccc([N+](=O)[O-])cc1` the figure was active: 36.9%; with `CCc1nc(SC)ncc1C(=O)NCc1cccc(Br)c1`, 16.8%. With `O=C(Cn1nc(Cc2cccnc2)c2ccccc2c1=O)N1CCN(c2ccccc2F)CC1` the figure was 6.41%; with `COc1ccc(CNC(=O)c2ccc(CN3C(=O)C(C)=C(c4ccc(C)cc4)S3(=O)=O)cc2)cc1`, -1.62%; with `Cc1cc(O)c2c(C)c(CC(=O)NCc3ccccc3Cl)c(=O)oc2c1`, -2.51%.

With `O=C(NCCSc1c[nH]c2ccccc12)c1ccc(Cl)cc1`, the inhibition was -11.7%. `O=C(NCCc1ccccc1)c1ccc2c(c1)N(Cc1ccc(Cl)cc1)C(=O)c1ccccc1S2(=O)=O`: the inhibition amounted to 0.0422%. For `COc1ccc(Cn2c(SCc3ccc(C(=O)NCc4ccc(C)cc4)cc3)nc3cccnc32)cc1`, the inhibition is -6.7%. Consider `Cc1ccc(C2=Nc3ccccc3N=C(c3ccc(F)cc3)C2)c(O)c1`, for which the inhibition was -12.7%.

On to `CCN(c1ccccc1C)S(=O)(=O)c1nnc(NC(=O)c2ccc(OC)c(OC)c2)s1`, for which the inhibition stood at 11.8%.

In the case of `COc1ccc(CNC(=O)CN2N=C(c3ccc(Cl)cc3)CCC2=O)cc1`, the inhibition was -9.81%.

Take `COc1ccc(-c2nn(C)c3sc(C(=O)NCCN(C)C)cc23)cc1OC`: the inhibition was -1.37%. On to `Cc1cc(C)c(NC(=O)Cn2c(=O)n(CCC(C)C)c(=O)c3cccnc32)c(C)c1`, for which the inhibition was found to be 1.64%. As for `CN(c1ccc(C(=O)N2CCN(Cc3ccccc3)CC2)cc1)S(=O)(=O)c1ccc(Cl)cc1`, the inhibition is active: 89.9%. Take `COc1ccc(C(=O)CC2(O)C(=O)N(Cc3ccccc3)c3ccc(Br)cc32)cc1` (configuration not stated): the inhibition is 21.3%.

With `CCc1ccc(C(=O)c2cn(CC(=O)NCCc3ccccc3)c3nc(C)ccc3c2=O)cc1`, the inhibition was 3.09%. The same measure for `COc1cccc(NC(=O)C2CCCN(c3ncnc4onc(-c5ccc(F)cc5)c34)C2)c1` (configuration not stated): -5.71%. The same measure for `COc1ccc(Nc2nc(Cl)nc(Nc3ccc(OC)cc3OC)n2)c(OC)c1`: active: 51.3%; for `Cc1ccc(C)c(OCC(=O)Nc2sc3c(c2C#N)CCCC3)c1C`: -12.2%. Turning to `CCC1CCCCN1CCCNC(=O)c1ccc2c(c1)c(C)c(C)n2CC` (configuration not stated), the inhibition was -26.2%.

As to `CCOC(=O)c1c(Nc2ccc(C)c(C)c2)nnc(-c2ccccc2)c1-c1ccccc1`, the inhibition stood at 17%.

In the case of `O=C(NCCc1ccccc1)c1c[nH]c2ccc(S(=O)(=O)Nc3ccc(F)cc3F)cc2c1=O`, the inhibition is 4.97%. The same measure for `CCOc1ccc(NC(=O)NCCN2CCN(c3cc(Cl)ccc3C)CC2)cc1`: -5.36%. The same measure for `CCCC(=O)Nc1cc2nn(-c3ccc(OC)cc3)nc2cc1C`: 14.7%; for `CC1=C(c2ccc(C)c(C)c2)S(=O)(=O)N(Cc2ccc(C(=O)NCc3ccccc3F)cc2)C1=O`: -12.3%.

For `N#C/C(=C\c1ccc(O)cc1)C(=O)NCC1CCCO1` (configuration not stated), the inhibition was -18.7%. As to `Cc1cc(C)cc(NC(=O)Cn2nnc(-c3ccccc3F)n2)c1`, the inhibition is -5.86%.

For `O=C(CCc1cn(Cc2ccc(F)cc2)c2ccccc12)NC1CCCCC1`, the inhibition is 0.839%. The same measure for `COc1ccc(-c2cc(C(F)(F)F)n3nc(C)c(-c4ccccc4)c3n2)cc1OC`: 11.8%; for `CCn1nc(C)c2c(-c3ccccc3)cc(=O)n(C(C)C(=O)Nc3ccc(OC)c(OC)c3)c21` (configuration not stated): -6.08%. In the case of `COc1ccc(C2C=C(c3ccccc3)Nc3nc(NC(C)=O)nn32)cc1` (configuration not stated), the inhibition was -4.02%.

Turning to `CCOC(=O)c1ccccc1NC(=O)CN(c1ccccc1)S(=O)(=O)c1ccc(OCC)cc1`, the inhibition is 0.244%.
